Results reported in PubChem BioAssay AID651820 (National Center for Advancing Translational Sciences (NCATS), 2012).
The campaign covered roughly 340,000 compounds. About 12,000 (3.5%) were called active. Inconclusive means that the source gave no clear call. Such entries were picked first, then a sample of the others. Calls come from the whole dose curve; as a rule, active = well fitted inhibition curve with a large enough effect; inconclusive = small, poorly fitted or top-dose-only effect, or another doubt; inactive = no such curve, though single readings can be large or run the other way. No potency is given beside an inconclusive call; the fits are too rough.

Test: qHTS Assay for Inhibitors of Hepatitis C Virus (HCV)
Details: Huh7.5.1 HCVcc-Cre (HCVcc is cell-culture hepatitis C virus) infection, luciferase reporter, 44 h; activity change, negative = inhibition: at 41.8 µM (top of the series) unless noted
How it was run: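 A cell-based infection assay in which seeded cells (1,000 per well) receive test compound after 4 h, are inoculated with HCVcc-Cre at approximately 0.5 moi, and are incubated 44 h before luminescence detection.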
% is set by controls: 0 for no effect and ±100 for the full control effect; potency is the fitted concentration of half-maximal effect; tags give direction and shape of the fitted curve.

SMILES	Potency	activity change, negative = inhibition
O=C(c1ccccc1)N1CCN(c2ccc([N+](=O)[O-])c(NCc3ccco3)c2)CC1	active: 8.91 µM	–
O=C1/C(=C\c2ccc3ccccc3c2)CCCc2ccccc21	inconclusive [inhibitor, partial curve, poor fit]	–
O=C(CCCSc1nc(-c2ccco2)cc(C(F)(F)F)n1)Nc1ccc2c(c1)OCO2	active: 3.98 µM	–
CC(C)C(OC(=O)C1=Cc2ccccc2OC1)C(=O)NC1CCCC1 (centres undefined)	inconclusive [inhibitor, single point]	–
Cc1ccccc1OCc1nnc(SCC(=O)Nc2ccc3nc(SCC(=O)Nc4ccccc4)sc3c2)n1C	active: 1.12 µM	–
COc1ccc(-c2noc(CN(C(=O)c3ccoc3C)C(C)C)n2)cc1	–	inactive: -10.6%
O=C(Cc1cccc(NC(=O)C2CCCN(C(=O)C3CC3)C2)c1)Nc1ccc(C(=O)N2CCCCC2)cc1 (centres undefined)	inconclusive [inhibitor, single point]	–
COc1ccccc1OCCCn1cc(C(C)=O)c2ccccc21	inconclusive [inhibitor, single point]	–
CC(c1ccccc1)N1CCn2c(nc3cc(NC(=O)c4cccs4)ccc32)C1 (centres undefined)	active: 10 µM	–
CCc1nnc(NS(=O)(=O)c2ccc(NC(=S)NC(=O)c3ccc(Br)cc3)cc2)s1	–	inactive: 3.48%
CCCc1cc(C(=O)N2CCN(C(c3ccccc3)c3ccccc3)CC2)no1	inconclusive [inhibitor, partial curve]	–
COc1ccccc1-c1c(C)nn2c(N3CCC(C)CC3)cc(C)nc12	active: 10 µM	–
CC(=O)Nc1ccc(NC(=O)C2CCCCN2S(=O)(=O)c2ccc(C(C)(C)C)cc2)cc1 (centres undefined)	inconclusive [inhibitor, partial curve]	–
CCOC(=O)c1c2n(c3ccc(O)cc13)CCCCC2	inconclusive [inhibitor, single point]	–
CC(NCc1ccccc1O)C12CC3CC(CC(C3)C1)C2 (centres undefined)	–	inactive: -4.73%
Cc1ccc(C(=O)NCc2ccccn2)cc1NC1=NC2CS(=O)(=O)CC2S1 (centres undefined)	–	inactive: 10.5%
CCCc1nc2c(s1)CCc1onc(-c3cccc([N+](=O)[O-])c3)c1-2	–	inactive: -15.1%
CCc1ccc(OCc2nc(-c3ccccn3)no2)c(Br)c1	inconclusive [inhibitor, partial curve, poor fit]	–
S=C(NC1CCCCC1)c1ccc2c(c1)OCO2	inconclusive [inhibitor, full curve, poor fit]	–
CC(C)(C)n1nc2c(c1NC(=O)c1ccc(Cl)c([N+](=O)[O-])c1)CS(=O)(=O)C2	–	inactive: 8.8%
CCSc1nnc(-c2ccc(S(=O)(=O)N3CCOCC3)cc2)n1C	inconclusive [inhibitor, single point]	–
CCC(=O)c1ccc(N2CCN(C(=O)Cc3ccccc3)CC2)c(F)c1	inconclusive [inhibitor, single point]	–

SMILES	Potency	activity change, negative = inhibition
COc1ccccc1-n1c(SCC(=O)NC(C)(C)C)nnc1-c1ccco1	–	inactive: 23.6%
Cc1cc(N(C)C)ccc1N=Nc1ccc(N)cc1	inconclusive [inhibitor, full curve]	–
Clc1ccc(CSc2nnc(-c3sccc3-n3cccc3)o2)cc1	inconclusive [inhibitor, single point]	–
Oc1ccc(Nc2nc(-c3ccccc3F)nc3ccccc23)cc1	inconclusive [inhibitor, single point]	–
COC(=O)c1c(NC(=O)C(=O)N2CCOCC2)sc2c1CCC2	–	inactive: -10%
O=S(=O)(NC1=NCCCCC1)c1ccc2sc(NS(=O)(=O)c3ccc4ccccc4c3)nc2c1	inconclusive [inhibitor, single point]	–
COc1cccc(Nc2ncnc3c2cnn3-c2cccc(C)c2)c1	inconclusive [inhibitor, single point]	–
N#Cc1cc2c(nc1SCC(=O)Nc1sc3c(c1C#N)CCC3)CCCCC2	inconclusive [inhibitor, full curve, poor fit]	–
CC1CCN(S(=O)(=O)c2ccc(NC(=O)c3ccncc3)cc2)CC1	active: 11.2 µM	–
O=C(Nc1ccc2oc(-c3ccccc3Cl)nc2c1)c1cncc(Br)c1	active: 17.8 µM	–
COC(=O)c1ccc(Cn2nc(-c3ccc(C)c(C)c3)ccc2=O)cc1	–	inactive: 7.22%
CCOC(=O)C(C)(C)N(Cc1cccc(C)c1)S(=O)(=O)c1ccc(Cl)c([N+](=O)[O-])c1	inconclusive [inhibitor, single point]	–
NS(=O)(=O)c1cccc(NC(=O)c2cccc3c(Br)cccc23)c1	inconclusive [inhibitor, single point]	–
CC(C)(C)NC(=O)c1cccc(NC(=O)Cc2ccc(Br)cc2)c1	inconclusive [inhibitor, single point]	–
Cc1cc(-c2ccc(N=Nc3c(S(=O)(=O)O)cc4cc(S(=O)(=O)O)cc(N)c4c3O)c(C)c2)ccc1N=Nc1c(S(=O)(=O)O)cc2cc(S(=O)(=O)O)cc(N)c2c1O	inconclusive [inhibitor, full curve]	–
Cc1cc(C)n(-c2nc(NCCO)c3c4c(sc3n2)CCCC4)n1	active: 7.08 µM	–
CCN=C1SC(CC(=O)Nc2sc3c(c2C#N)CCCC3)C(=O)N1CC (centres undefined)	inconclusive [inhibitor, partial curve]	–
CCc1ccc(NC(=O)C2CCCN(S(=O)(=O)c3c(C)[nH]c(=O)[nH]c3=O)C2)cc1 (centres undefined)	inconclusive [inhibitor, partial curve, poor fit]	–
Cc1cnc(C(=O)OC(C(=O)Nc2cc(C(F)(F)F)ccc2Cl)c2ccccc2)cn1 (centres undefined)	–	inactive: 4.44%
CN(CCOc1ccccc1)C(=O)c1ccc(Cl)c(S(=O)(=O)N2CCCCC2)c1	inconclusive [inhibitor, single point]	–
NCCc1nc(-c2ccccc2)cs1	–	inactive: -7.61%
COc1cc(C(=O)Nc2nc(-c3cc(C)ccc3C)c(C)s2)ccc1OCC(=O)Nc1ccc(F)cc1	inconclusive [inhibitor, full curve]	–
